# Laboratory results: PubChem BioAssay AID651820 (National Center for Advancing Translational Sciences (NCATS), 2012)
# The whole screen tested about 340,000 compounds, of which about 12,000 (3.5%) were called active. Inconclusive results, whose numbers are uncertain, are shown with a selection of clear calls. The call rests on the fitted dose curve; in most records, active means well fitted inhibition curve with a large enough effect; inconclusive means small, poorly fitted or top-dose-only effect, or another doubt; inactive means no such curve, though single readings can be large or run the other way. Potencies of inconclusive entries are left out as doubtful fits.
# Assay: qHTS Assay for Inhibitors of Hepatitis C Virus (HCV)
# Conditions: Huh7.5.1 HCVcc-Cre (HCVcc is cell-culture hepatitis C virus) infection, luciferase reporter, 44 h; activity change, negative = inhibition: at 41.8 µM (top of the series) unless noted
# Method in brief: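 Luciferase read-out (15 sec integration) after a 15 min room-temperature substrate step quantifies HCVcc-Cre infection. Cells, 1,000 per well, had compound added 4 h post-plating, then virus at ~0.5 moi, and were cultured 44 h.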
# On the % scale 0 is the no-effect control and ±100 the full control effect; potency means the concentration at half of the fitted maximal effect; tags describe the fitted curve by direction and shape.
SMILES,Potency,"activity change, negative = inhibition"
CN(C)C(=O)c1ccc(NC(=O)c2cccc(S(=O)(=O)N3CCCCCC3)c2)cc1,"inconclusive [inhibitor, partial curve]",
CC(CCc1ccccc1)NCc1cccc2ccccc12 (stereo not given),"inconclusive [inhibitor, single point]",
COc1ccc(Cl)cc1NC(=O)c1cccc([N+](=O)[O-])c1O,"inconclusive [inhibitor, single point]",
c1ccc(-c2nnc3ccc(N4CCCC4)nn23)cc1,"inconclusive [inhibitor, single point]",
C/C(=N\NC(=S)NC(C)C)c1ccc2c(c1)OCCO2,"inconclusive [inhibitor, single point]",
CC(C)N(C(=O)[C@H]1C[C@H](CC(=O)NCCCN(C)C)C(=O)N2CCc3c([nH]c4cc(CCC(=O)N(C)C)ccc34)[C@]12C)C(C)C,active: 0.316 µM,
COc1ccc2[nH]c3c(c2c1)CCN1C(=O)C(CC(=O)NCCC2=CCCCC2)C[C@H](C(=O)N2CCCCC2)[C@@]31C (stereo not given in full),"inconclusive [inhibitor, single point]",
O=C(c1ccco1)N1CCN(c2nnc(-c3ccccc3)c3ccccc23)CC1,,inactive: -2.12%
CC1(OC(=O)c2ccc(Cl)nc2)C(=O)C=C2C=C3CCCN3C=C2C1=O (stereo not given),,inactive: 10.6%
O=C(O)/C=C/C(=O)c1ccc2c(c1)NC(=O)CO2,,inactive: 9.27%
CC(C)OCCCNC(=O)c1ccc2c(c1)NC(=O)c1ccccc1S2,"inconclusive [inhibitor, single point]",
COc1cccc(C(=O)N=c2sc3c(C)ccc(OC)c3n2C)c1,"inconclusive [inhibitor, single point]",
COc1ccc(/C=N/n2cncn2)cc1COc1ccc(NC(C)=O)cc1,"inconclusive [inhibitor, single point]",
CCCCOc1ccc(C(=O)NCC(=O)NCc2ccccn2)cc1,"inconclusive [inhibitor, single point]",
COc1cc(OC)cc(C(=O)Nc2nnc(NC(=S)Nc3ccccc3)s2)c1,"inconclusive [inhibitor, partial curve]",
CCOc1ccc(Nc2oc(-c3ccc(Cl)cc3)nc2C#N)cc1,"inconclusive [inhibitor, partial curve, poor fit]",
COc1cc(NC(=O)C2CSC3(C)CCC(=O)N23)c(OC)cc1Cl (stereo not given),active: 10 µM,
Cc1cc2c(N=O)c(NO)ccc2[nH]1,"inconclusive [inhibitor, single point]",
O=C(c1cc(-c2ccc(Cl)cc2)n(-c2ccc(Cl)cc2)n1)N1CCOCC1,"inconclusive [inhibitor, single point]",
COc1cccc(-c2ccc(NC(=O)C3CCCN(CCCn4cccn4)C3)cc2)c1 (stereo not given),"inconclusive [inhibitor, full curve, poor fit]",
Cc1nc2cc(NC(=O)CCS(=O)(=O)c3ccccc3)ccc2s1,"inconclusive [inhibitor, partial curve]",
CC1=CC(C)(C)N(S(=O)(=O)c2ccc(F)cc2)c2ccccc21,,inactive: 9.02%
CCOc1ccc(NC(=O)CN(C)C(=O)c2cc([N+](=O)[O-])ccc2Sc2ccccc2)cc1OCC,"inconclusive [inhibitor, partial curve]",
CCOc1ccccc1NC(=O)Cn1nnc(C(=O)Nc2ccc(C)cc2)c1N,"inconclusive [inhibitor, partial curve]",

SMILES,Potency,"activity change, negative = inhibition"
O=C(c1cccs1)N1CCCc2ccccc21,"inconclusive [inhibitor, single point]",
Cc1cc(C(=O)OCn2nnc3ccccc3c2=O)c(C)n1-c1ccccc1,"inconclusive [inhibitor, partial curve, poor fit]",
CC(C)CCn1c(Oc2ccccc2Cl)nc2c1c(=O)n(C)c(=O)n2C,"inconclusive [inhibitor, partial curve]",
CCS(=O)(=O)c1nc(S(=O)(=O)c2ccc(Cl)cc2)c(NCCCN2CCOCC2)s1,,inactive: -9.94%
CCOc1ccc(CCNC(=O)CSCc2ccc(C)cc2)cc1OCC,"inconclusive [inhibitor, partial curve]",
COc1ccc(CC(=O)NCC2(c3ccc(OC)c(OC)c3)CCCC2)cc1,,inactive: -8.5%
O=C1S/C(=C\c2ccc(N3CCOCC3)o2)C(=O)N1c1ccccc1,active: 31.6 µM,
CCOC(=O)c1[nH]c(C)c(C(=O)OCC(=O)N2CC(=O)Nc3ccccc32)c1C,"inconclusive [inhibitor, single point]",
CCN(CC)S(=O)(=O)c1ccc(N2CCOCC2)c(NS(=O)(=O)c2ccc(C(C)C)cc2)c1,,inactive: -8.91%
Cc1noc(C)c1COc1cccc(C(=O)Nc2ccc(Br)cc2F)c1,active: 2.82 µM,
O=C(NCCc1ccccc1)c1nc2nc(-c3cccs3)cc(C(F)(F)F)n2n1,active: 10 µM,
Cc1cc(/C=N/NC(=O)c2ccc(CN3CCOCC3)cc2)c(C)n1-c1ccccc1,"inconclusive [inhibitor, full curve]",
O=C(O)c1ccc(C(=O)C(=O)c2ccccc2)cc1,,inactive: -2.54%
COc1cccc(C(=O)NC2=NCCS2)c1OC,"inconclusive [inhibitor, single point]",
CCOc1cc(N2CCOCC2)c(OCC)cc1NC(=O)c1[nH]c(C)c(C(C)=O)c1C,"inconclusive [inhibitor, full curve]",
O=[N+]([O-])c1ccc2nc(C3CCCCC3)[nH]c2c1,"inconclusive [inhibitor, single point]",
Cc1ccc(N=Nc2ccc(C)cc2NC(=O)Nc2ccccc2F)cc1,"inconclusive [inhibitor, full curve]",
O=C(Nc1ccc(N2CCN(C(=O)c3ccco3)CC2)c(Cl)c1)c1cccnc1,"inconclusive [inhibitor, single point]",
COc1ccc(NC(=O)CSc2nccn2Cc2ccco2)cc1,,inactive: 15%
CCC(NC(=O)c1cc(COc2cncc(Cl)c2)on1)c1ccncc1 (stereo not given),"inconclusive [inhibitor, partial curve]",
Cc1cc(=O)n2nc(N3CCC(C(=O)NCCc4ccc(Cl)cc4)CC3)sc2n1,,inactive: -20.2%
NC(=O)c1ccccc1NC(=O)Nc1cccc(Cl)c1Cl,,inactive: -2.97%
CC(C)(C)NC(=O)c1cccc(NC(=O)Cc2cccs2)c1,"inconclusive [inhibitor, full curve, poor fit]",
CCOc1ccccc1NC(=O)NCc1ccccc1F,active: 11.2 µM,

SMILES,Potency,"activity change, negative = inhibition"
CCN(CC)c1ccc(/C=N/N2CCOCC2)cc1,"inconclusive [inhibitor, single point]",
CC1CN(S(=O)(=O)c2ccc(C(=O)Nc3ccc(S(=O)(=O)N4CCOCC4)cc3)cc2)CC(C)O1 (stereo not given),"inconclusive [inhibitor, single point]",
CCN(CC)CCOC(=O)c1ccc(NC(=O)C2(c3ccccc3)CCCC2)cc1,"inconclusive [inhibitor, single point]",
O=C(N/N=C\c1ccc(Cl)cc1Cl)c1sccc1-n1cccc1,"inconclusive [inhibitor, single point]",
COc1ccc(-n2cc(-c3ccc(Cl)cc3)[nH]c2=S)cc1,,inactive: -5.77%
COc1cc(C(=S)N2CCCCC2)ccc1O,,inactive: -1.1%
O=C(NC1CCCCCC1)c1ccc(OCC2CCCO2)cc1 (stereo not given),"inconclusive [inhibitor, single point]",
CC1=C(C(=O)OC(C)C)C(c2cccs2)C(C(=O)OC(C)C)=C(C)N1,"inconclusive [inhibitor, full curve, poor fit]",
CN(C)C(=O)COc1ccc2cc(-c3ccccc3)c(=O)oc2c1,,inactive: 2.77%
O=C(CSc1ccc(C(F)(F)F)cc1[N+](=O)[O-])N1CCOCC1,,inactive: 4.25%
C/C(=N/NC(=O)CNC(=O)c1ccc2c(c1)OCO2)c1ccc2c(c1)CCCC2,"inconclusive [inhibitor, single point]",
CC(=O)Nc1ccc(NC(=O)c2ccc(NS(=O)(=O)c3cc(C(C)(C)C)cc(C)c3C)cc2)cc1,"inconclusive [inhibitor, single point]",
Cc1cccc(C)c1NC(=O)Cn1cc(C=O)c2ccccc21,"inconclusive [inhibitor, single point]",
COc1ccc(-c2oc3c(OC)c(OC)c(OC)c(O)c3c(=O)c2OC)cc1OC,active: 10 µM,
CC(=O)c1cc2c(cc1NC(=O)Cn1cnc3ccccc3c1=O)OCO2,"inconclusive [inhibitor, single point]",
Oc1ccc(CNc2ccc(F)cc2)c2cccnc12,"inconclusive [inhibitor, single point]",
CCOc1ccc(-n2c(C)c(C(C)=O)c3cc(OC(C)=O)ccc32)cc1,"inconclusive [inhibitor, single point]",
CCOC(=O)Cc1csc(NC(=O)CSc2nc(=O)[nH]c3c2CCCC3)n1,,inactive: 3.79%
Cc1ncc([N+](=O)[O-])n1CCO,,inactive: 11.9%
CC1(C)Cc2nc3sc4c(SCC(=O)O)ncnc4c3cc2CO1,,inactive: -11%
O=C(Nc1ccc(S(=O)(=O)N2CCOCC2)cc1)c1ccc(Br)o1,"inconclusive [inhibitor, single point]",
O=C(CCNC(=O)c1ccc(Br)cc1)Nc1ccccc1N1CCCC1,"inconclusive [inhibitor, single point]",
